This is an account of results in PubChem BioAssay (NCATS).

A word on the AC50: it is the concentration at which the activity in the assay is half-maximal.

Each structure is given as a SMILES string. Several values for one entry are separate records, joined by “and”; a condition that tells them apart may be missing. Equal entries are not always repeated. The list shows a part of the results. The main result of the screen is listed elsewhere. These columns were measured beside it and carry no call. Most of these compounds were active or inconclusive in the main read-out, so they are no random draw. Potencies come from curve fits of mixed quality, noted in brackets.
Tags give direction and shape of the fitted curve.

The nature of one test: qHTS Assay for Lipid Storage Modulators (AID 1519). Particulars: Drosophila S3 cells, BODIPY lipid droplet/cell ratio, laser cytometry; measured here: cell count channel max response; cells loaded with oleic acid. The gist of the method:
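Cells seeded at 5,000 per well were treated with compounds over a concentration series and loaded with oleic acid (400 uM, as added). Lipid droplet fluorescence (488 nm excitation, 500-530 nm channel) was read by laser-scanning cytometry and normalized to 20 uM Triacsin C.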
(In general: Quantitative high-throughput screening tests each substance at several concentrations.)
Take `CS(=O)(=O)N1CCC[C@@]2(CCN(c3ncccn3)C2)C1`: the max response is 24.1%. On to `COc1ccc(-c2cc(=O)c3ccccc3o2)cc1`, for which the max response was determined as 28.8%.

As to `O=c1cc(-c2ccc(O)cc2O)oc2ccccc12`, the max response was 71.3%. On the same count and under the same terms, the same measure for `O=C(O)c1nc2cc(Cl)c(Cl)cc2[nH]c1=O`: 19.5%. Same read-out and setting: the same measure for `Cc1cnc(CNc2cc(-c3ccccc3CN(C)C)ncn2)cn1`: 20.7%; for `O=c1c(-c2cccc(F)c2)nc2cncnc2n1Cc1ccccc1Cl`: 14.7%; for `O=C(O)[C@H]1[C@H]2C[C@H]3c4[nH]c5ccccc5c4CCN3C[C@@H]2CC[C@@H]1O`: 60.3%. Consider `CN(Cc1ccco1)c1ncncc1-c1ccccc1C(F)(F)F`, for which the max response was found to be 28.9%. Still for that read-out and setting: the same measure for `CN(C)c1ncc2nc(-c3ccccc3)c(=O)n(CCC#N)c2n1`: 19.6%; for `O=c1cnc2cnc(Oc3ccccc3)nc2n1Cc1ccc(F)cc1`: 32.5%; for `CS(=O)(=O)Nc1cccc(-c2ccc3ncnc(N4CCOCC4)c3c2)c1`: -22.5%. Turning to `Cn1c(=O)c(-c2ccc(Cl)cc2)nc2cnc(Oc3ccccc3)nc21`, the max response was 11.8%. Still for that read-out and setting: the same measure for `O=c1c(-c2cc(F)cc(F)c2)nc2cnc(N3CCOCC3)nc2n1-c1ccccc1`: 22.1%. On the same count and under the same terms, the same measure for `CC(C)[C@@H]1C(=O)N(S(C)(=O)=O)[C@H]2CCN(C(=O)/C=C\CN3CCCCC3)[C@@H]12`: -16.5%; for `O=C(c1cnccn1)N1CCC2(CCCN(Cc3nccs3)C2)CC1`: 26.3%. `Cc1noc(C)c1-c1nc(NCc2ccccc2)c2ccccc2n1`: the max response came out at 2.45%.

As to `CCCCCCCCCCCCCCCC[N+](C)(C)CCN(Cc1ccc(OC)cc1)c1ncccn1`, the max response is -52.2%.

As to `COc1cccc(Cn2c(=O)c(-c3cc(F)cc(F)c3)nc3cncnc32)c1`, the max response stood at 5.89%. Same read-out and setting: the same measure for `O=c1cc(-c2ccc(O)cc2)oc2cccc(O)c12`: 78.6%. On the same count and under the same terms, the same measure for `N#Cc1cccc(NC(=O)N2CCCC3(CCN(C(=O)c4cc(C(F)(F)F)cc(C(F)(F)F)c4)CC3)C2)c1`: 11.1%; for `C1COC(NC(C2CC2)C2CC2)=N1`: 23.3% and 49.3%; for `CC(C)NC(=O)N1CCC2(CC1)CCN(C(=O)c1cccn1C)CC2`: 21.4%. Still for that read-out and setting: the same measure for `CCNc1ncc2nc(-c3cccs3)c(=O)n(-c3ccc(OC)cc3)c2n1`: 41.5%; for `O=C(c1cnccn1)N1CCC2(CC1)CCN(c1cccc(-c3ccccc3)c1)CC2`: -4.48%; for `Cc1cnc(CNc2ncncc2-c2ccccc2C)cn1`: 27.6%.

Turning to `COc1ccccc1N1CCN(CCN2C(=O)c3ccccc3C(C)(C)C2=O)CC1`, the max response turned out to be 88%.

Take `O=c1c(-c2ccc(Cl)cc2)nc2cnc(N3CCNCC3)nc2n1CCc1ccccc1`: the max response is -29.7%. The same measure, in the same setting: the same measure for `CN1CCN2c3ccccc3Cc3ccccc3[C@@H]2C1`: 37%; for `COCCn1c(=O)cnc2cnc(Oc3cccc(Cl)c3)nc21`: 27.8%; for `Cc1ccccc1-c1nc(NC2CC2)c2ccccc2n1`: 20.5%.

For `COC(=O)N1CCC2(CC1)CCN(c1cccc(-c3ccccc3)c1)CC2`, the max response was found to be 17.6%.

Consider `COCC(=O)N1CCC2(CCCN(c3cccc(-c4ccccc4)c3)C2)CC1`, for which the max response is 11.8%.

Consider `CNC1C(O)C2OC3OC(C)CC(=O)[C@@]3(O)O[C@H]2[C@H](NC)C1O` (stereo partly drawn), for which the max response amounted to 26.5%.

In the case of `O=C(Oc1ccccc1)N1CCC2(CCCN(c3ccc(-c4ccccc4)cc3)C2)CC1`, the max response stood at 35.8%.

For the compound `CO[C@@]1(NC(=O)Cc2cccs2)C(=O)N2C(C(=O)O)=C(COC(N)=O)CSC21` (stereo partly drawn), the max response is 19.7%. As for `CCNc1ncc2ncc(=O)n(CCc3ccccc3)c2n1`, the max response is 18.1%. On to `COc1ccc2[nH]cc(CCNc3ncncc3-c3ccc4c(c3)OCO4)c2c1`, for which the max response was -9.4%. In the case of `CCOc1ccc2nc3cc(N)ccc3c(N)c2c1`, the max response turned out to be 9.67%. The same measure, in the same setting: the same measure for `COc1ncc2nc(-c3ccc(F)cc3)c(=O)n(Cc3ccc(F)cc3)c2n1`: 25.9%; for `CC[C@H](C)N(C)C(=O)c1cc2ccccc2c(-c2ccccc2Cl)n1`: 49.2%.

Still in this test, the particulars now being: Drosophila S3 cells, BODIPY lipid droplet/cell ratio, laser cytometry; measured here: cell number channel AC50; cells loaded with oleic acid.
Turning to `COc1ccc(-c2cc(=O)c3ccccc3o2)cc1`, the AC50 is 0.0112 µM [rising, full curve]. On the same count and under the same terms, the same measure for `O=c1cc(-c2ccc(O)cc2O)oc2ccccc12`: 12.6 µM [rising, partial curve]. The same measure, in the same setting: the same measure for `O=C(O)[C@H]1[C@H]2C[C@H]3c4[nH]c5ccccc5c4CCN3C[C@@H]2CC[C@@H]1O`: 12.6 µM [rising, partial curve, poor fit]; for `O=c1cnc2cnc(Oc3ccccc3)nc2n1Cc1ccc(F)cc1`: 20 µM [rising, partial curve]; for `CCCCCCCCCCCCCCCC[N+](C)(C)CCN(Cc1ccc(OC)cc1)c1ncccn1`: 15.8 µM [falling, single point].

Consider `O=c1cc(-c2ccc(O)cc2)oc2cccc(O)c12`, for which the half-maximal activity concentration (AC50) is 28.2 µM [rising, partial curve, poor fit].

Regarding `CCNc1ncc2nc(-c3cccs3)c(=O)n(-c3ccc(OC)cc3)c2n1`, the concentration at half-maximal activity (AC50) was 0.0398 µM [rising, full curve, poor fit]. In the case of `COc1ccccc1N1CCN(CCN2C(=O)c3ccccc3C(C)(C)C2=O)CC1`, the half-maximal activity concentration (AC50) was 7.08 µM [rising, partial curve]. Still for that read-out and setting: the same measure for `CN1CCN2c3ccccc3Cc3ccccc3[C@@H]2C1`: 12.6 µM [rising, partial curve, poor fit]; for `COCC(=O)N1CCC2(CCCN(c3cccc(-c4ccccc4)c3)C2)CC1`: 1.12 µM [rising, full curve, poor fit]. `O=C(Oc1ccccc1)N1CCC2(CCCN(c3ccc(-c4ccccc4)cc3)C2)CC1`: the AC50 is 3.98 µM [rising, full curve, poor fit]. On the same count and under the same terms, the same measure for `COc1ccc2[nH]cc(CCNc3ncncc3-c3ccc4c(c3)OCO4)c2c1`: 0.141 µM [rising, full curve]; for `CC[C@H](C)N(C)C(=O)c1cc2ccccc2c(-c2ccccc2Cl)n1`: 12.6 µM [rising, partial curve, poor fit].
